# pIC50: −log10 of the molar value. The IC50 comes from the fitted curve, where viability falls to half of the control; a limit (>, <) means that the fit lies beyond the doses tested. AUC, from the same fit, is the share of area under the viability curve across the 256-fold dose range; it is 1 without any effect and falls as sensitivity rises. For some assays here: The top dose, if marked as inferred, comes from the curve model; the source does not state it.
# Assays:
# Experiment in all cases: Viability of human cancer cell lines after 72 h of drug (GDSC screen)
# QL-XI-92 = compound: C=CC(=O)Nc1cc(NC(=O)c2ccc(C)c(NC(=O)c3ccno3)c2)cc(C(F)(F)F)c1 [QL-XI-92]; conditions: top dose 10.24 µM; top dose inferred
# Procedure: (§1)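 Human cancer cell lines in 384-well plates, medium with 10% serum, drug for 72 h over a 256-fold dose range (nine 2-fold or five 4-fold steps up to the top dose). Adherent lines were fixed and stained with the nucleic acid dye Syto60, suspension lines read with resazurin; signal relative to control wells, capped at 0 and 100%. One two-parameter sigmoid per drug and line, fitted in a mixed model over all curves with the slope shared within a line.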
# Vinorelbine = compound: CCC1=C[C@@H]2CN(C1)Cc1c([nH]c3ccccc13)[C@@](C(=O)OC)(c1cc3c(cc1OC)N(C)[C@H]1[C@@](O)(C(=O)OC)[C@H](OC(C)=O)[C@]4(CC)C=CCN5CC[C@]31[C@@H]54)C2 [Vinorelbine]; conditions: top dose 0.064 µM; top dose inferred
# Procedure: as §1
# AG-014699 = compound: CNCc1ccc(-c2[nH]c3cc(F)cc4c3c2CCNC4=O)cc1 [AG-014699]; conditions: top dose 5 µM; top dose inferred
# Procedure: as §1
# XL-184 = compound: COc1cc2nccc(Oc3ccc(NC(=O)C4(C(=O)Nc5ccc(F)cc5)CC4)cc3)c2cc1OC [XL-184]; conditions: top dose 5.12 µM; top dose inferred
# Procedure: as §1
# WHI-P97 = compound: COc1cc2ncnc(Nc3cc(Br)c(O)c(Br)c3)c2cc1OC [WHI-P97]; conditions: top dose 10.24 µM; top dose inferred
# Procedure: as §1
# Gefitinib = compound: COc1cc2ncnc(Nc3ccc(F)c(Cl)c3)c2cc1OCCCN1CCOCC1 [Gefitinib]; conditions: top dose 0.5 µM
# Procedure: as §1
# Phenformin = compound: N=C(N)NC(=N)NCCc1ccccc1 [Phenformin]; conditions: top dose 4000 µM; top dose inferred
# Procedure: as §1
# S-Trityl-L-cysteine = compound: N[C@@H](CSC(c1ccccc1)(c1ccccc1)c1ccccc1)C(=O)O [S-Trityl-L-cysteine]; conditions: top dose 5.12 µM; top dose inferred
# Procedure: as §1
# EHT 1864 = compound: O=c1cc(CN2CCOCC2)occ1OCCCCCSc1ccnc2cc(C(F)(F)F)ccc12 [EHT 1864]; conditions: top dose 10 µM; top dose inferred
# Procedure: as §1
# NU-7441 = compound: O=c1cc(N2CCOCC2)oc2c(-c3cccc4c3sc3ccccc34)cccc12 [NU-7441]; conditions: top dose 2 µM; top dose inferred
# Procedure: as §1
Cell Line,AUC (QL-XI-92),pIC50 (QL-XI-92),AUC (Vinorelbine),pIC50 (Vinorelbine),AUC (AG-014699),pIC50 (AG-014699),AUC (XL-184),pIC50 (XL-184),AUC (WHI-P97),pIC50 (WHI-P97),AUC (Gefitinib),pIC50 (Gefitinib),AUC (Phenformin),pIC50 (Phenformin),AUC (S-Trityl-L-cysteine),pIC50 (S-Trityl-L-cysteine),AUC (EHT 1864),pIC50 (EHT 1864),AUC (NU-7441),pIC50 (NU-7441)
"ROS-50 (B-cell leukaemia, suspension)",0.861,< 4.99,0.918,< 7.19,0.965,< 5.30,0.95,< 5.29,0.981,< 4.99,0.976,< 6.30,0.583,3.35,0.919,< 5.29,0.979,< 5.00,0.983,< 5.70
"RPMI-8402 (T-cell lymphoblastic leukaemia, suspension)",0.874,5.14,0.577,8.20,0.991,< 5.30,0.875,5.43,0.948,< 4.99,0.989,< 6.30,0.432,3.77,0.602,6.24,0.945,< 5.00,0.978,< 5.70
"RPMI-8866 (chronic myeloid leukaemia, suspension)",0.988,< 4.99,0.734,7.76,0.946,< 5.30,0.926,< 5.29,0.917,< 4.99,0.892,< 6.30,0.352,4.00,0.902,< 5.29,0.891,< 5.00,0.846,5.88
"RXF393 (kidney, adherent)",0.846,< 4.99,0.502,8.39,0.704,5.83,0.84,< 5.29,0.959,< 4.99,0.943,< 6.30,0.932,< 2.40,0.847,< 5.29,0.927,< 5.00,0.969,< 5.70
"Ramos-2G6-4C10 (Burkitt lymphoma, suspension)",0.929,< 4.99,0.511,8.37,0.987,< 5.30,0.854,5.50,0.969,< 4.99,0.937,< 6.30,0.452,3.73,0.688,6.01,0.938,< 5.00,0.906,< 5.70
"SBC-1 (small cell lung carcinoma, suspension)",0.989,< 4.99,0.96,< 7.19,0.989,< 5.30,0.975,< 5.29,0.984,< 4.99,0.989,< 6.30,0.908,< 2.40,0.911,< 5.29,0.982,< 5.00,0.989,< 5.70
"SCH (stomach, adherent)",0.984,< 4.99,0.98,< 7.19,0.941,< 5.30,0.988,< 5.29,0.988,< 4.99,0.988,< 6.30,0.917,< 2.40,0.814,5.51,0.959,< 5.00,0.98,< 5.70
"SF126 (glioma, adherent)",0.911,< 4.99,0.941,< 7.19,0.964,< 5.30,0.975,< 5.29,0.968,< 4.99,0.981,< 6.30,0.835,2.55,0.743,5.78,0.95,< 5.00,0.973,< 5.70
"SH-4 (melanoma, adherent)",0.959,< 4.99,0.672,7.80,0.974,< 5.30,0.872,< 5.29,0.909,< 4.99,0.955,< 6.30,0.54,3.47,0.749,5.59,0.953,< 5.00,0.967,< 5.70
"SHP-77 (small cell lung carcinoma, semi-adherent)",0.985,< 4.99,0.973,< 7.19,0.985,< 5.30,0.975,< 5.29,0.983,< 4.99,0.963,< 6.30,0.737,2.97,0.73,5.88,0.945,< 5.00,0.992,< 5.70
"SIMA (neuroblastoma, adherent)",0.964,< 4.99,0.916,< 7.19,0.958,< 5.30,0.933,< 5.29,0.962,< 4.99,0.985,< 6.30,0.98,< 2.40,0.942,< 5.29,0.985,< 5.00,0.98,< 5.70
"SJSA-1 (bone, adherent)",0.948,< 4.99,0.711,7.76,0.959,< 5.30,0.969,< 5.29,0.982,< 4.99,0.984,< 6.30,0.761,2.80,0.636,6.10,0.971,< 5.00,0.94,< 5.70
"SK-MEL-1 (melanoma, suspension)",0.992,< 4.99,0.985,< 7.19,0.976,< 5.30,0.993,< 5.29,0.982,< 4.99,0.993,< 6.30,0.855,2.60,0.991,< 5.29,0.976,< 5.00,0.993,< 5.70

# Source: the supplement of paper PMC4967469
